Source: PubChem BioAssay AID1347120 (National Center for Advancing Translational Sciences (NCATS), 2019)
In all, about 390,000 compounds went through this assay and about 930 (0.24%) were called active. Inconclusive means that the source gave no clear call. Such entries were picked first, then a sample of the others. Calls come from the whole dose curve; as a rule, active = well fitted activation curve with a large enough effect; inconclusive = small, poorly fitted or top-dose-only effect; inactive = no such curve, though single readings can be large or run the other way. Potencies beside an inconclusive call are fits to weak or partial responses and may not hold up.

assay: qHTS for Suppressors of FUS Proteinopathy: Primary screen using FUS-linked yeast assay; note: nearly all actives have a fitted effect of over 55% in size;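 for growth rescue (activation): plate controls were DMSO vehicle for no effect and reference control for full effect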; conditions: S. cerevisiae FUS-expressing, OD600, 24 h; Potency: growth rescue; growth rescue (activation): at 76.6 µM (top of the series)
In short: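 Toxicity suppression screen in FUS-yeast. Cells induced with 2% galactose, starting OD 0.005, treated 24hr at 30C with compounds at multiple final concentrations; growth by OD600.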
Potency is the fitted concentration of half-maximal effect; tags give direction and shape of the fitted curve.

Compound | Potency | growth rescue (activation)
COc1ccc(N(CCN2C(=O)c3ccccc3C2=O)C(=O)c2cccc([N+](=O)[O-])c2)cc1 | inactive | –
CCC(CO)Nc1cccc2c1S(=O)(=O)N(Cc1cn(Cc3ccc(C(F)(F)F)cc3)nn1)Cc1ccccc1O2 (stereo not given) | inconclusive: 28.2 µM [activator, partial curve, poor fit] | –
CC1=NN(/C(=N\c2nnc(C)s2)Nc2ccc(C(C)(C)C)cc2)[C@H](c2ccc(C)cc2)S1 | inconclusive: 39.8 µM [activator, partial curve, poor fit] | –
Cc1cc(Cl)ccc1NC(=O)c1cc(S(=O)(=O)N2CCOCC2)cn1C | inactive | –
Cc1ccc(S(=O)(=O)c2nnn3c2nc(Nc2cccc(C)c2)c2ccccc23)cc1 | inactive | –
O=C(Nc1ccc(S(=O)(=O)Nc2ncccn2)cc1)c1cncc(Br)c1 | – | inconclusive: 3.38% [activator]
CCOC(=O)C1CCCN(C(=O)c2ccc3nc(-c4ccccc4)c(-c4ccccc4)nc3c2)C1 (stereo not given) | inconclusive: 31.6 µM [activator, single point] | –
CNc1oc(-c2ccccc2Cl)nc1P(=O)(c1ccccc1)c1ccccc1 | inconclusive: 25.1 µM [activator, single point] | –
O=C(Nc1ccc(Br)cc1)O[C@@H]1CC[C@@]23CCCN2C(=O)CCC[C@H]3C1 | inactive | –
Clc1cccc(-c2ccc(/C=N/n3cnnc3)o2)c1Cl | inactive | –
O=C(N/N=C/c1ccccc1)c1ccc2c(c1)OCO2 | inactive | –
C[C@H](CO)N1C[C@H](C)[C@@H](CN(C)C(=O)Nc2ccc3c(c2)OCO3)Oc2ccc(NC(=O)Nc3ccc4c(c3)OCO4)cc2C1=O | inconclusive: 50.1 µM [activator, single point] | –
O=C(NC1CCCCCCC1)c1cc(COc2ccc3ncccc3c2)on1 | inactive | –
CC1CCc2nc3ncn(Cc4ccccc4C#N)c(=O)c3cc2C1 (stereo not given) | inactive | –
COc1ccc(-c2nn(-c3ccccc3)cc2/C=N/Nc2ccc3ccccc3n2)cc1OC | inconclusive: 28.2 µM [activator, partial curve, poor fit] | –
COc1cc2c(cc1OC)/C(=C/c1ccc(Cl)cc1)C(=O)OC2 | inactive | –
COc1ccc(-c2noc(N3CCC(C(=O)Nc4cc(OC)ccc4OC)CC3)n2)cc1 | inconclusive: 31.6 µM [activator, single point] | –
COc1cc2oc3ccccc3c2cc1N(CC(=O)N(C)C)S(=O)(=O)c1ccccc1 | inconclusive: 1.78 µM [activator, full curve, poor fit] | –
COc1cc(C(=O)Oc2ccc3ccc(O)cc3c2)cc(OC)c1OC | inactive | –
N#CCCn1cc(C(=O)CN2C(=O)NC3(CCc4ccccc43)C2=O)c2ccccc21 (stereo not given) | inconclusive: 31.6 µM [activator, single point] | –
COc1cc(NC(=O)Nc2nc(C(N)C3CCCCC3)cs2)cc(OC)c1OC (stereo not given) | inconclusive: 28.2 µM [activator, single point] | –
Cc1cc(C)c2c(CC(=O)N3CCN(c4cccc(Cl)c4)CC3)coc2c1 | inconclusive: 28.2 µM [activator, partial curve] | –
O=C(O)c1cncc(SCc2ccccc2)n1 | inactive | –
O=C(Nc1ccc(Cl)cc1)C1Cc2c(-c3ccccc3)ccnc2O1 (stereo not given) | inactive | –

Compound | Potency | growth rescue (activation)
CCCC(=O)N1c2ccc(-c3csc(N)n3)cc2CC1C (stereo not given) | – | inconclusive: 104% [activator]
Cc1c(Cl)cccc1NC(=O)c1cnc2sc(N3CCOCC3)nn2c1=O | inconclusive: 7.94 µM [activator, single point] | –
COc1ccc(-n2nc(C(=O)NCC(=O)NCCc3ccc(OC)c(OC)c3)c3ccccc3c2=O)cc1Cl | inconclusive: 8.91 µM [activator, partial curve] | –
CC(=O)c1ccc(Oc2ccc(C(C)=O)cc2)cc1 | inactive | –
Cc1ccc(C)c(NC(=O)c2cnn(-c3cccc(F)c3)c2C2CCN(C(=O)OC(C)(C)C)CC2)c1 | inconclusive: 28.2 µM [activator, single point] | –
N#C/C(=C\c1ccc(OC(F)F)cc1)C(=O)N1CCCCC1 | inactive | –
Cc1ccc2c(c1)-c1cc(C)nn1C(c1sccc1C)N2 (stereo not given) | inactive | –
COc1ccc(CC(=O)N2CCc3cc(OC)c(OC)cc3C2COc2ccc(OC)cc2)cc1 (stereo not given) | inconclusive: 35.5 µM [activator, single point] | –
COc1ccc(N2CCN(C(=O)Cc3coc4cc(C)ccc34)CC2)cc1 | inconclusive: 22.4 µM [activator, partial curve, poor fit] | –
CC1CCN(c2oc(-c3ccco3)nc2S(=O)(=O)c2ccccc2)CC1 | inactive | –
CC(C)Oc1ccc(CNC(=O)CCCN2C(=O)c3cccnc3Oc3ccc(Cl)cc32)cc1 | inconclusive: 28.2 µM [activator, partial curve, poor fit] | –
COC(=O)c1cc2c(C)nn(C)c2s1 | inactive | –
CCOc1cc(CNC(=O)c2sc3ncnc(N(C)C4CCCCC4)c3c2C)ccc1OC | inconclusive: 28.2 µM [activator, partial curve, poor fit] | –
COC(=O)c1cc2sc(Cl)cc2n1CC(=O)Nc1ccc(OC)c(OC)c1OC | inconclusive: 12.6 µM [activator, full curve, poor fit] | –
COc1ccc(CNC(=O)c2ccc(N3CCCC3)c(NC(=O)NCc3ccc(F)cc3)c2)cc1 | inconclusive: 50.1 µM [activator, single point] | –
CCc1nc(N)c(C#N)c(-c2cccnc2)c1C | inactive | –
Cc1ccc(N2C(=O)CSC23C(=O)N(CC(=O)NCc2ccccc2)c2ccccc23)cc1C (stereo not given) | inactive | –
CCCCCn1c(SCCc2ccccc2)nc2c1c(=O)[nH]c(=O)n2C | inactive | –
COc1ccc(-c2ccc(=O)n(CC(=O)Nc3ccc(C(=O)NC4CC4)cc3)n2)cc1OC | inconclusive: 50.1 µM [activator, single point] | –
CC(=O)Nc1cc(-c2cccc(C(=O)NCCN(C)C)c2)cn2c(-c3cccc(C(F)(F)F)c3)cnc12 | inactive | –
COc1cc(-c2cc(OC)c3c(C)oc(C)c3c(=O)c2)ccc1OC(=O)c1ccccc1Cl | active: 12.6 µM | –
Clc1ccc(-c2csc(N/N=C/c3ccco3)n2)cc1 | inactive | –
CC1CC(=O)Nc2ccccc2N1C(=O)CSc1ncnc2sccc12 (stereo not given) | inconclusive: 35.5 µM [activator, partial curve, poor fit] | –
CCOC(=O)CNC(=O)C1c2ccccc2C(=O)N(c2ccc(OC)cc2)C1c1ccc(OC)cc1 (stereo not given) | inconclusive: 25.1 µM [activator, partial curve, poor fit] | –

Compound | Potency | growth rescue (activation)
Cc1ccccc1N1CC(c2nc3ccccc3n2CCC2CCCCC2)CC1=O (stereo not given) | inconclusive: 22.4 µM [activator, single point] | –
Cc1ccc(C)c(N2CCN(C(=O)C3CCCN(S(=O)(=O)c4ccc5c(c4)oc(=O)n5C)C3)CC2)c1 (stereo not given) | inconclusive: 50.1 µM [activator, single point] | –
Cc1cccc(NC(=O)CN(CC2CCCO2)C(=O)c2ccc(S(C)(=O)=O)cc2)c1C (stereo not given) | inactive | –
CCOC(=O)C1CCC(CN(Cc2cccc(Br)c2)S(=O)(=O)c2ccc(C)cc2)CC1 (stereo not given) | inactive | –
CCOC(=O)[C@]12CCCC=C1N(Cc1ccc(Cl)cc1Cl)C(=O)[C@H](CC(=O)NCc1ccc(C)o1)C2 | inconclusive: 17.8 µM [activator, single point] | –
Cc1cnc(C(=O)N2CCN(S(=O)(=O)c3ccc4ccccc4c3)CC2)cn1 | inactive | –
COc1ccc2c(c1)c1c(c(=O)n(Cc3ccccc3)c(=O)n1CC(=O)NCc1ccccc1Cl)n2C | inactive | –
O=[N+]([O-])c1cccc(N/N=C/c2cc([N+](=O)[O-])ccc2O)c1 | inactive | –
CCc1nn(CC(=O)NCCc2ccc(OC)cc2OC)c(=O)c2cc3c(OC)cccc3n12 | inactive | –
CCOc1cc(CNC(=O)C2COc3ccccc3C2)cc(OCC)c1OCC (stereo not given) | inactive | –
CCOc1ccccc1NC(=O)Cn1cc(C(=O)c2cccc(OC)c2)c(=O)c2ccc(C)nc21 | inactive | –
Cc1cc(C)c2nc(-c3ccccn3)cc(C(=O)NCc3ccc(S(N)(=O)=O)cc3)c2c1 | inconclusive: 31.6 µM [activator, single point] | –
Cc1c(CCNC(=O)c2ccc(Br)o2)sc2nc(-c3ccc(F)cc3)nn12 | inactive | –
Brc1ccc(-c2csc(N3CCNCC3)n2)cc1 | inactive | –
Cc1c(C(=O)NCCc2ccccc2)oc2ccc(S(=O)(=O)N3CCC4(CC3)OCCO4)cc12 | inconclusive: 44.7 µM [activator, single point] | –
CN(C)CCNC(=O)Cn1nc(C(F)F)cc1C1CC1 | – | inconclusive: 58.1% [activator]
Cc1ccc(Cl)cc1N1CCN(Cc2nc3c(c(=O)[nH]c(=O)n3C)n2Cc2ccccc2F)CC1 | inactive | –
Cc1cn([C@H](C(=O)NCCCCCCCCCCC(=O)N2CCN(C(=O)OC(C)(C)C)CC2)[C@@H](C)O)nn1 | inconclusive: 3.98 µM [activator, full curve] | –
Cc1ccc2oc(-c3ccc(NC(=O)c4ccc5c(c4)OCO5)cc3)nc2c1 | inactive | –
CCc1ccc(/C=C2/Sc3ccccc3N(CC(=O)NCC3CCCO3)C2=O)cc1 (stereo not given) | inconclusive: 31.6 µM [activator, single point] | –
COc1ccc(OC)c(-n2c(C)ccc2-c2ccc(S(C)(=O)=O)cc2)c1 | inconclusive: 31.6 µM [activator, single point] | –
CCOc1cccc2c1OC(c1cc(OC)c(OC)c(OC)c1)N1N=C(c3ccc(C)o3)CC21 (stereo not given) | inconclusive: 8.91 µM [activator, partial curve, poor fit] | –
